Test results as given in the supplement of paper PMC10369915.
The list shows a part of the results. Cut-off read from the data, not from the text of the source: active = 3.2 or more and inactive = the rest. Most of these values are background signal.

The binders below were run against SHP2 C-SH2 domain E139D (assay: enrichment score (SH2-bound / input frequency) (ratio); bacterial display of known human phosphotyrosine sites (pTyr-Var adds point mutants) read by sequencing; higher = stronger binding; tyrosines were phosphorylated by kinases first). Conditions: peptide library: pTyr-Var.
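Note: displayed peptides selected on beads carrying the immobilized SH2 domain, with library peptides lacking any tyrosine serving as negative controls.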

Binder	enrichment score
HEKKVYSFCGT [RPS6KA3_Y226_A225V]	inactive: 0.89
IIAVHYVLEES [RYR2_Y4559]	inactive: 2.71
AIMSFYATLID [RYR1_Y2426_A2428T]	inactive: 1.46
IGVGSYSVCKR [RPS6KA3_Y433]	inactive: 0.642
QKMLDYLKEKK [RYR2_Y3780]	inactive: 1.25
DENWFYTRPAS [RPS19_Y54_A57P]	inactive: 0.903
KELAPYDENWF [RPS19_Y48]	inactive: 0.828
TVSTRYTQPQP [SARG_Y259]	inactive: 0.919
FDDGKYVFVVT [RPS6KA3_Y488_YF]	inactive: 0.709
FQRLQYIKQLG [SAMHD1_Y146_R145Q]	inactive: 0.663
RKRQFYLYKGK [RSPO4_Y112_C107R]	inactive: 0.153
LGSNTYPFLLM [SAG_Y120_T125M]	inactive: 0.719
YDDGKYVYVVT [RPS6KA3_Y488]	inactive: 0.707
LMFPDYLPCSV [SAG_Y129_T125M]	inactive: 1.08
VSLEAYCKHKY [RXRA_Y403_A398V]	inactive: 1.26
RLNCIYYKDQT [RS1_Y165_W163C]	inactive: 1.52
TLKDVYDDGKY [RPS6KA3_Y483]	inactive: 0.838
QRRLVYFEGGA [RYR1_Y245_YF]	inactive: 0.87

The binders below were run against SHP2 C-SH2 domain wild-type in the same assay as above. Conditions: peptide library: pTyr-Var.

Binder	enrichment score
HEKKVYSFCGT [RPS6KA3_Y226_A225V]	inactive: 0.921
IIAVHYVLEES [RYR2_Y4559]	inactive: 2.08
AIMSFYATLID [RYR1_Y2426_A2428T]	inactive: 1.26
IGVGSYSVCKR [RPS6KA3_Y433]	inactive: 0.957
QKMLDYLKEKK [RYR2_Y3780]	inactive: 0.934
DENWFYTRPAS [RPS19_Y54_A57P]	inactive: 0.866
KELAPYDENWF [RPS19_Y48]	inactive: 0.65
TVSTRYTQPQP [SARG_Y259]	inactive: 0.772
FDDGKYVFVVT [RPS6KA3_Y488_YF]	inactive: 0.914
FQRLQYIKQLG [SAMHD1_Y146_R145Q]	inactive: 0.731
RKRQFYLYKGK [RSPO4_Y112_C107R]	inactive: 0.178
LGSNTYPFLLM [SAG_Y120_T125M]	inactive: 1.32
YDDGKYVYVVT [RPS6KA3_Y488]	inactive: 0.637
LMFPDYLPCSV [SAG_Y129_T125M]	inactive: 1.09
VSLEAYCKHKY [RXRA_Y403_A398V]	inactive: 0.761
RLNCIYYKDQT [RS1_Y165_W163C]	inactive: 1.6
TLKDVYDDGKY [RPS6KA3_Y483]	inactive: 0.623
QRRLVYFEGGA [RYR1_Y245_YF]	inactive: 0.837

What follows are binders tested against SHP2 N-SH2 domain L43F in the same assay as above. Conditions: peptide library: pTyr-Var.

Binder	enrichment score
HEKKVYSFCGT [RPS6KA3_Y226_A225V]	inactive: 0.888
IIAVHYVLEES [RYR2_Y4559]	active: 4.07
AIMSFYATLID [RYR1_Y2426_A2428T]	inactive: 1.11
IGVGSYSVCKR [RPS6KA3_Y433]	inactive: 0.709
QKMLDYLKEKK [RYR2_Y3780]	inactive: 1.05
DENWFYTRPAS [RPS19_Y54_A57P]	inactive: 0.862
KELAPYDENWF [RPS19_Y48]	inactive: 0.689
TVSTRYTQPQP [SARG_Y259]	inactive: 0.836
FDDGKYVFVVT [RPS6KA3_Y488_YF]	inactive: 0.655
FQRLQYIKQLG [SAMHD1_Y146_R145Q]	inactive: 0.71
RKRQFYLYKGK [RSPO4_Y112_C107R]	inactive: 0.211
LGSNTYPFLLM [SAG_Y120_T125M]	inactive: 1.27
YDDGKYVYVVT [RPS6KA3_Y488]	inactive: 0.706
LMFPDYLPCSV [SAG_Y129_T125M]	inactive: 0.895
VSLEAYCKHKY [RXRA_Y403_A398V]	inactive: 0.879
RLNCIYYKDQT [RS1_Y165_W163C]	inactive: 1.11
TLKDVYDDGKY [RPS6KA3_Y483]	inactive: 0.729
QRRLVYFEGGA [RYR1_Y245_YF]	inactive: 0.93

The binders below were run against SHP2 N-SH2 domain T42A in the same assay as above. Conditions: peptide library: pTyr-Var.

Binder	enrichment score
HEKKVYSFCGT [RPS6KA3_Y226_A225V]	inactive: 0.841
IIAVHYVLEES [RYR2_Y4559]	inactive: 1.96
AIMSFYATLID [RYR1_Y2426_A2428T]	inactive: 1.34
IGVGSYSVCKR [RPS6KA3_Y433]	inactive: 0.734
QKMLDYLKEKK [RYR2_Y3780]	inactive: 1.04
DENWFYTRPAS [RPS19_Y54_A57P]	inactive: 0.853
KELAPYDENWF [RPS19_Y48]	inactive: 0.639
TVSTRYTQPQP [SARG_Y259]	inactive: 0.766
FDDGKYVFVVT [RPS6KA3_Y488_YF]	inactive: 0.83
FQRLQYIKQLG [SAMHD1_Y146_R145Q]	inactive: 0.561
RKRQFYLYKGK [RSPO4_Y112_C107R]	inactive: 0.247
LGSNTYPFLLM [SAG_Y120_T125M]	inactive: 0.999
YDDGKYVYVVT [RPS6KA3_Y488]	inactive: 0.777
LMFPDYLPCSV [SAG_Y129_T125M]	inactive: 0.993
VSLEAYCKHKY [RXRA_Y403_A398V]	inactive: 0.515
RLNCIYYKDQT [RS1_Y165_W163C]	inactive: 1.29
TLKDVYDDGKY [RPS6KA3_Y483]	inactive: 0.767
QRRLVYFEGGA [RYR1_Y245_YF]	inactive: 0.769

What follows are binders tested against SHP2 N-SH2 domain T52S in the same assay as above. Conditions: peptide library: pTyr-Var.

Binder	enrichment score
HEKKVYSFCGT [RPS6KA3_Y226_A225V]	inactive: 0.79
IIAVHYVLEES [RYR2_Y4559]	active: 3.76
AIMSFYATLID [RYR1_Y2426_A2428T]	inactive: 1.19
IGVGSYSVCKR [RPS6KA3_Y433]	inactive: 0.565
QKMLDYLKEKK [RYR2_Y3780]	inactive: 1.34
DENWFYTRPAS [RPS19_Y54_A57P]	inactive: 0.861
KELAPYDENWF [RPS19_Y48]	inactive: 0.843
TVSTRYTQPQP [SARG_Y259]	inactive: 0.844
FDDGKYVFVVT [RPS6KA3_Y488_YF]	inactive: 0.597
FQRLQYIKQLG [SAMHD1_Y146_R145Q]	inactive: 0.695
RKRQFYLYKGK [RSPO4_Y112_C107R]	inactive: 0.205
LGSNTYPFLLM [SAG_Y120_T125M]	inactive: 1.18
YDDGKYVYVVT [RPS6KA3_Y488]	inactive: 0.765
LMFPDYLPCSV [SAG_Y129_T125M]	inactive: 0.794
VSLEAYCKHKY [RXRA_Y403_A398V]	inactive: 0.422
RLNCIYYKDQT [RS1_Y165_W163C]	inactive: 1.33
TLKDVYDDGKY [RPS6KA3_Y483]	inactive: 0.82
QRRLVYFEGGA [RYR1_Y245_YF]	inactive: 0.947

What follows are binders tested against SHP2 N-SH2 domain wild-type in the same assay as above. Conditions: peptide library: pTyr-Var.

Binder	enrichment score
HEKKVYSFCGT [RPS6KA3_Y226_A225V]	inactive: 0.824
IIAVHYVLEES [RYR2_Y4559]	inactive: 2.47
AIMSFYATLID [RYR1_Y2426_A2428T]	inactive: 1.16
IGVGSYSVCKR [RPS6KA3_Y433]	inactive: 0.968
QKMLDYLKEKK [RYR2_Y3780]	inactive: 1.13
DENWFYTRPAS [RPS19_Y54_A57P]	inactive: 0.937
KELAPYDENWF [RPS19_Y48]	inactive: 0.822
TVSTRYTQPQP [SARG_Y259]	inactive: 0.972
FDDGKYVFVVT [RPS6KA3_Y488_YF]	inactive: 0.773
FQRLQYIKQLG [SAMHD1_Y146_R145Q]	inactive: 0.918
RKRQFYLYKGK [RSPO4_Y112_C107R]	inactive: 0.193
LGSNTYPFLLM [SAG_Y120_T125M]	inactive: 0.818
YDDGKYVYVVT [RPS6KA3_Y488]	inactive: 0.685
LMFPDYLPCSV [SAG_Y129_T125M]	inactive: 1.12
VSLEAYCKHKY [RXRA_Y403_A398V]	inactive: 0.664
RLNCIYYKDQT [RS1_Y165_W163C]	inactive: 1.49
TLKDVYDDGKY [RPS6KA3_Y483]	inactive: 0.641
QRRLVYFEGGA [RYR1_Y245_YF]	inactive: 0.872
